Data: the BET-seq Pho4 binding data (Le et al. 2018)
This is one part of the list. Values were computed here from the reads of four pooled replicates and scatter widely.

Biological target: T1, Pho4 (S. cerevisiae) (UniProt P07270)
T1 sequence: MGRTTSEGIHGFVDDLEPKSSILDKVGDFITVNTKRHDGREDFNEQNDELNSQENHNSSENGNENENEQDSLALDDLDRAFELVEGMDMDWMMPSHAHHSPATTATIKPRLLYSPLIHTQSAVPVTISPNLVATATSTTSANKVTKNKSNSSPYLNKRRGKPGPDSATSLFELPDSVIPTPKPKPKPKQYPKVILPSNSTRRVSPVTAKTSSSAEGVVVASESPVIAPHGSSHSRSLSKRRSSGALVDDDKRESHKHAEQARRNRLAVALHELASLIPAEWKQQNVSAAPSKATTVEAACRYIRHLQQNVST
Test: relative binding free energy (BET-seq); higher = weaker binding
Settings: reference: library average

Row | Sequence | relative binding free energy [kcal/mol]
1 | ATAGGCACGTGCATGG | -0.26
2 | TTGGTCACGTGTATAA | 0.13
3 | AATTTCACGTGGTCGG | 0.32
4 | TTTTTCACGTGCAGTT | 0.21
5 | CTATGCACGTGGGTGA | -0.16
6 | GTTAACACGTGATCTG | 0.23
7 | GGTTTCACGTGAGTGA | 0.3
8 | GAGGGCACGTGTGATT | 0.03
9 | GTGTACACGTGCATTG | 0.07
10 | TGTTACACGTGAAGGA | 0.21
11 | ACATGCACGTGCTGGG | -0.11
12 | GCGGTCACGTGTGCAG | 0.16
13 | GATTCCACGTGGGAGT | 0.06
14 | TTTGACACGTGGGAGC | -0.08
15 | TGTTACACGTGTGCGG | 0.08
16 | AATTCCACGTGTTGTT | 0.1
17 | TGTATCACGTGCGGTC | 0.04
18 | TGTCACACGTGGAGAT | 0.16
19 | AGAGTCACGTGTGGGC | 0.15
20 | GTTGTCACGTGAGGCG | 0.32
21 | TACGACACGTGTGTGT | -0.04
22 | TAGGGCACGTGGGTTA | -0.24
23 | GATTTCACGTGAGCTG | 0.31

Row | Sequence | relative binding free energy [kcal/mol]
24 | AACTGCACGTGTGGTT | -0.11
25 | TATATCACGTGGATTT | 0.22
26 | ATAGGCACGTGTGATG | -0.1
27 | TCTCTCACGTGTTGGA | 0.3
28 | TGTTTCACGTGATGTC | 0.45
29 | AGGGGCACGTGAGGTT | 0.13
30 | GAGGGCACGTGGTTCT | -0.11
31 | TATTACACGTGAGAGG | 0.41
32 | TGGGTCACGTGGGACT | 0.12
33 | GCGGTCACGTGTGAGG | 0.26
34 | TAGCGCACGTGTCGTG | 0.01
35 | TACTTCACGTGAAGGG | 0.33
36 | GGCTGCACGTGGGCGC | -0.11
37 | TTTTTCACGTGGTAGG | 0.4
38 | GATGGCACGTGTCTGG | -0.02
39 | TGGGGCACGTGTCTTC | -0.07
40 | ATAGACACGTGTGGTC | 0.02
41 | CTTCTCACGTGTGTTG | 0.17
42 | TTTACCACGTGGATGT | 0.03
43 | CATTGCACGTGGAAGT | 0.16
44 | AATTACACGTGTGTGA | 0.17
45 | GGCTGCACGTGTTTTT | 0.06
46 | TGGGTCACGTGGAAGT | 0.27

Row | Sequence | relative binding free energy [kcal/mol]
47 | GGTTACACGTGTCAAG | 0.16
48 | AAGGTCACGTGTTTGT | 0
49 | GAGGCCACGTGGTTAG | -0.05
50 | GGCTTCACGTGGAATT | 0.43
51 | ATTTGCACGTGAATTC | 0.36
52 | AGCGTCACGTGGTTGA | 0.03
53 | TCAGACACGTGGTGAG | 0.03
54 | TTAGTCACGTGTGTAT | 0.22
55 | GTATTCACGTGTTAAT | 0.33
56 | GGGTTCACGTGACGGC | 0.46
57 | ATGCTCACGTGTCGGG | 0.21
58 | CGTTTCACGTGATTTC | 0.48
59 | TGTATCACGTGGTGCG | 0.05
60 | TACGGCACGTGGTATG | -0.21
61 | TGCGTCACGTGGCGGT | -0.03
62 | TGTGGCACGTGTGAGT | 0.05
63 | TACGGCACGTGAGTAT | 0.23
64 | GTGGCCACGTGGGGCT | -0.25
65 | TTTCGCACGTGGAGGA | 0
66 | TAGGACACGTGTAGGG | 0.07
67 | TGTTTCACGTGAATGG | 0.41
68 | AATTACACGTGTTCTT | 0.11
69 | GTGCTCACGTGGATAT | 0.31

Row | Sequence | relative binding free energy [kcal/mol]
70 | GTTTCCACGTGGGGGC | 0.01
71 | TGAGTCACGTGCTGAG | 0.02
72 | TTTGCCACGTGAAAAG | 0.3
73 | AGTCGCACGTGGGGAT | -0.2
74 | TATATCACGTGTTTTG | 0.14
75 | TCTTTCACGTGGGTGT | 0.17
76 | TTAGTCACGTGTGTGT | 0.15
77 | TCTGTCACGTGGGATT | 0.08
78 | GGAGCCACGTGGATGT | 0
79 | ATTTTCACGTGTTATG | 0.18
80 | GATCACACGTGGTGTG | 0.09
81 | ATGGTCACGTGGGGCA | 0
82 | TTTGGCACGTGGGCAT | -0.26
83 | TGAAGCACGTGGTCTT | -0.08
84 | TCTGTCACGTGGATGG | 0.04
85 | CGTGTCACGTGCCGGG | -0.05
86 | TAATGCACGTGTGCGA | -0.05
87 | TTGATCACGTGGTCGG | 0.05
88 | TAACTCACGTGTGTTG | 0.21
89 | AAGATCACGTGTTATT | 0.06
90 | GTTCGCACGTGGGTGA | -0.21
91 | GTGAGCACGTGGTAGG | -0.15
92 | TGGGGCACGTGGCCGA | -0.17

Row | Sequence | relative binding free energy [kcal/mol]
93 | ATGTTCACGTGTGTAC | 0.17
94 | TTTTTCACGTGGCTGG | 0.29
95 | GGTATCACGTGTAGCA | 0.15
96 | GGTCACACGTGGGGGC | 0.02
97 | GTCTGCACGTGGTTCG | 0.04
98 | GGATGCACGTGGTGAG | -0.02
99 | CATGACACGTGGGTGT | -0.26
100 | AGCTGCACGTGTTTTT | 0.02
101 | GAGTGCACGTGAGGTT | 0.45
102 | GAGGACACGTGGTTTA | 0.14
103 | TGTCACACGTGATTAT | 0.18
104 | TGGTTCACGTGGGGGA | 0.22
105 | TTTGTCACGTGTGCGG | 0.21
106 | GGTGGCACGTGAGGAA | 0.14
107 | CAGGTCACGTGTGAGA | 0.12
108 | ATATTCACGTGGGTGT | 0.2
109 | GCAGGCACGTGTGTTG | 0.04
110 | TGGGGCACGTGATGGA | -0.01
111 | TATATCACGTGTGGAA | 0.07
112 | TTCGGCACGTGGTTCT | -0.03
113 | TCGGGCACGTGAGGAG | 0.04
114 | ATGCTCACGTGATTGT | 0.32
115 | GATTTCACGTGGGGCG | 0.29
